# According to PubChem BioAssay AID1508642 (National Center for Advancing Translational Sciences (NCATS), 2021):
# Among all 43,000 compounds or so, about 200 (0.47%) were called active. Roughly 12% stayed inconclusive and do not appear here. Calls come from the whole dose curve; as a rule, active = well fitted cell-killing curve with a large enough effect; inconclusive = small, poorly fitted or top-dose-only effect, or effect the other way; inactive = flat fitted curve, though single readings scatter. The list shows a part of the results.
# Assay: Cell viability qHTS assay in S16 Pmp22-F2sN cells; note: nearly all actives have a fitted effect of over 65% in size
# Conditions: S16 Pmp22-F2sN Schwann cells viability, CellTiter-Glo, 24 h; series mostly up to 57.5 µM; activity change, negative = cytotoxicity: at the top concentration
# Summary of the method: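 S16 Pmp22-F2sN Schwann cells (500-1,000/well) in phenol-red-free DMEM with 10% FBS received 23 nL compound by pin tool for 24 h at 37 °C. Viability was then read as CellTiter-Glo luminescence after 15 min at room temperature.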
# % is set by controls: 0 for no effect and ±100 for the full control effect.
row,SMILES,"activity change, negative = cytotoxicity"
1,Cc1cc(NC(=O)N2CCC(CN3CCCCCC3)CC2)ccc1Br,inactive: -13.4%
2,COc1cccc(NC(=O)c2c(C)nn(-c3cccc(C)c3)c2-n2cccc2)c1,inactive: -0.265%
3,COc1ccc(N2CCN(C(CNS(=O)(=O)c3ccc(OC)c(C)c3)c3ccco3)CC2)cc1 (stereo unspecified),inactive: -6.36%
4,COc1ccc(C)cc1-n1c(-c2ccc(Cl)cc2)cc2c1CC(C)(C)CC2=O,inactive: -1.36%
5,COc1ccc(-c2nc(Cn3c(=O)cc(C)c4c(C)nn(-c5ccccc5)c43)c(C)o2)cc1OC,inactive: -6.03%
6,Nc1c(C(=O)Nc2ccccc2Br)sc2nc(-c3cccs3)ccc12,inactive: 20%
7,O=C(CSc1nc2c([nH]c3ccccc32)c(=O)n1-c1ccccc1)Nc1ccc2c(c1)OCO2,inactive: -6.91%
8,O=S(=O)(c1ccc(Cl)cc1)c1nnn2c1nc(NC1CCCC1)c1sccc12,inactive: -11%
9,CCC1Sc2ccccc2N(CC(=O)NCc2ccc(C)cc2)C1=O (stereo unspecified),inactive: 1.5%
10,CCn1cc(C(=O)NCCCOC(C)C)c(=O)c2cc(S(=O)(=O)N3CCOCC3)ccc21,inactive: 6.81%
11,CCc1ccc(OCC2c3cc(OC)c(OC)cc3CCN2C(=O)c2ccc(S(=O)(=O)N3CCCC3)cc2)cc1 (stereo unspecified),inactive: 0.585%
12,COc1ccc(NC(=O)CSc2ncc3c(n2)-c2ccccc2N(Cc2ccc(C)cc2)S3(=O)=O)cc1Cl,inactive: 21.3%
13,Cc1ccc(N(C)C(=O)c2sc3nc4n(c(=O)c3c2C)CCCC4)cc1C,inactive: -8.28%
14,COCCCn1c(=O)c2sccc2n2c(CCCC(=O)NCc3cccc(OC)c3)nnc12,inactive: 17.6%
15,CCOC(=O)C1CCN(C(=O)c2cc3sc(C)cc3n2C)CC1,inactive: -1.8%
16,CCOc1ccc(-c2cccc(NS(=O)(=O)c3ccc(C)s3)c2)nn1,inactive: -1.06%
17,NC(=O)C1CCN(S(=O)(=O)c2cc3c(cc2Cl)NC(=O)CO3)CC1,inactive: 18.1%
18,CCN1C(=O)c2ccccc2S(=O)(=O)c2ccc(C(=O)NCc3ccccc3)cc21,inactive: -0.617%
19,O=C(CSc1ncc(-c2ccccc2)[nH]1)Nc1ccccc1,inactive: 0.981%
20,CCOc1ccc(NS(=O)(=O)c2c(C)nc3sc(C)c(C)n3c2=O)cc1,inactive: -26.9%
21,CCOC(=O)C1CCN(C(=O)c2ccccc2NC(=O)c2nsc3ccccc23)CC1,inactive: 1.7%
22,CCOC(=O)C1CCC(CN(Cc2ccc(Cl)cc2)S(=O)(=O)c2cccc(Cl)c2C)CC1 (stereo unspecified),inactive: 1.77%
23,Cc1nc2nc(NC(=O)c3ccc(C(C)(C)C)cc3)[nH]n2c(=O)c1C,inactive: 1.79%
24,CCCCCCC(=O)Nc1ccc2nc3c(=O)n(C)c(=O)n(C)c3nc2c1C,inactive: 7.01%

row,SMILES,"activity change, negative = cytotoxicity"
1,CCCc1cnc2c(c1SCC(=O)NCc1ccc(C)cc1)c(=O)n(C)c(=O)n2C,inactive: -3.5%
2,CCOC(=O)c1ccc(N2C(=O)c3n[nH]c(-c4ccco4)c3C2c2ccc(C(=O)OC)cc2)cc1 (stereo unspecified),inactive: -21.4%
3,CC(=O)Nc1cccc(-c2nc(-c3ccccc3)no2)c1,inactive: -22.3%
4,O=C(c1ccc2c(c1)N(Cc1ccc(Cl)cc1)C(=O)c1ccccc1S2(=O)=O)N1CCCC1,inactive: 11.9%
5,COC(=O)c1ccccc1NC(=O)[C@H]1O[C@@H]2OC(C)(C)O[C@@H]2[C@H]2OC(C)(C)O[C@H]21,inactive: 7.19%
6,Cc1cc(C)cc(OCC(=O)Nc2cccc3cccnc23)c1,inactive: -1.89%
7,CCOc1ccc(CNC(=O)c2oc3c(c2C)-c2nn(Cc4cccc(Cl)c4)cc2CC3)cc1,inactive: -11.2%
8,COc1ccc(C)c2sc(NC(=O)c3ccc(S(=O)(=O)N(C)C)cc3)nc12,inactive: 10.2%
9,COc1ccccc1CCNC(=O)Cc1c(C)c2cc(Cl)c(O)cc2oc1=O,inactive: 5.16%
10,CC(C)c1ccc(S(=O)(=O)N2CCN(Cc3cccc(F)c3)CC2)cc1,inactive: -5.27%
11,CCc1ccc(S(=O)(=O)c2nnn3c2nc(N2CCN(c4ccccc4)CC2)c2cc(Cl)ccc23)cc1,inactive: 3.59%
12,CCCc1cc(=O)oc2c3c(ccc12)OCN(Cc1ccccc1OC)C3,inactive: 19.3%
13,CN(C(=O)Cn1nc(Cc2cccnc2)c2ccccc2c1=O)c1cccc(C(F)(F)F)c1,inactive: 17.8%
14,CCN(CC)C(=O)Cn1c(=O)n(CCCCCC(=O)NCc2ccc3c(c2)OCO3)c(=O)c2sccc21,inactive: 0.958%
15,O=c1c2sc3ccccc3c2n(Cc2cccc(F)c2)c(=O)n1CCc1ccccc1,inactive: 15.5%
16,CCC(=O)OCc1cc(=O)n2nc(C3CC3)sc2n1,inactive: 17.6%
17,Cc1ccc(CNC(=O)c2ccc(N3CCCC3)c(NC(=O)Nc3ccc(C)cc3)c2)cc1,inactive: -0.255%
18,Cc1ccc(NC(=O)CN2C(=O)COc3ccc(S(=O)(=O)N4CCCCCC4)cc32)c(C)c1,inactive: -1.77%
19,Cc1ccc(CNC(=O)C(=O)Nc2c3c(nn2-c2ccc(F)cc2)CSC3)cc1,inactive: -3.32%
20,CC(C)c1cnc2c(c1SCC(=O)NC(C)(C)C)c(=O)n(C)c(=O)n2C,inactive: 19.1%
21,CCOc1ccc(N(C)C(=O)c2oc(=O)c3ccccc3c2-c2ccccc2)cc1,inactive: -8.95%
22,CCc1ccc(-c2nc(CS(=O)CC(=O)NCCc3ccc(C)cc3)c(C)o2)cc1 (stereo unspecified),inactive: 1.48%
23,Cc1ccc(CN(C(=O)c2ccc(OCC(C)C)cc2)c2ccccn2)o1,inactive: -0.561%
24,CCn1cc2c(n1)-c1c(oc(C(=O)Nc3ccc(Br)cc3F)c1C)CC2,inactive: -3.25%

row,SMILES,"activity change, negative = cytotoxicity"
1,O=C(O)CC1c2ccccc2CCN1C(=O)Nc1cc(Cl)ccc1Cl (stereo unspecified),inactive: -5.87%
2,Cc1ccc(N(CC(=O)N2CCN(c3cc(C)ccc3C)CC2)S(=O)(=O)c2c(C)nn(C)c2C)cc1,inactive: -2.32%
3,COc1ccc(C(=O)c2oc3ccccc3c2NC(=O)c2cccc(OC)c2)cc1,inactive: 2.07%
4,CCOC(=O)c1cc(-c2ccccc2)n(CCCC(=O)Nc2ccccc2C)c1C,inactive: 1.39%
5,CCN(CC)CCOC(=O)c1ccc(Nc2c3c(nc4ccccc24)CCC3)cc1,inactive: -17.1%
6,COc1ccc(CNC(=O)C(CC(C)C)N2Cc3ccccc3C2=O)cc1 (stereo unspecified),inactive: 6.03%
7,CC(C)CN(CCNC(=O)c1cc(-c2cccs2)nc2ccccc12)CC(C)C,inactive: 7.6%
8,CCN(CC)CCOC(=O)c1ccc(NC(=O)c2cc3c(s2)-c2ccccc2OC3)cc1,inactive: -3.7%
9,COc1ccc(CNC(=O)c2sc3nc4n(c(=O)c3c2C)CCCCC4)cc1,inactive: 3.13%
10,CCc1ccc(NC(=O)CN2C(=O)c3ccccc3Sc3ccc(C(=O)N4CCCC4)cc32)cc1,inactive: 0.0288%
11,Clc1cccc(C2=NC(c3cccs3)=Nc3ccc(Br)cc3N2)c1,inactive: -16%
12,Cc1nc(-c2ccc(S(=O)(=O)Nc3ccc(Cl)c(C(F)(F)F)c3)cc2)co1,inactive: 0.334%
13,CCOCCn1cnc2sc(C(=O)Nc3ccccc3C(=O)OC)c(C)c2c1=O,inactive: 28.1%
14,O=C(Cn1ccc2cc(S(=O)(=O)N3CCCCC3)ccc21)NCc1ccccc1Cl,inactive: -15.1%
15,Cn1c(=O)c2c(c3ccccc31)OC(=O)CC2c1cccc(Cl)c1 (stereo unspecified),inactive: -4.42%
16,Cc1ccc(-c2nc(CCNC(=O)C(=O)Nc3c(C)cccc3C)cs2)cc1,inactive: -1.54%
17,COc1cc(NC(=O)CN2Cc3ccccc3C2=O)cc(OC)c1OC,inactive: -2.15%
18,CCCN(CCC)C(=O)c1nn(C)c2c1CSc1ccc(C)cc1-2,inactive: -7.44%
19,CC(C)Cn1c(=O)c2ccccc2n2c(CCC(=O)Nc3ccc(F)cc3)nnc12,inactive: 9.31%
20,CCOc1cccc(CC(=O)N2CCc3c([nH]c4ccccc34)C2c2ccc(SC)cc2)c1OCC (stereo unspecified),inactive: 3.46%
21,CCOc1ccc(NC(=O)Cn2nc(Cc3ccncc3)c3ccccc3c2=O)cc1,inactive: -3.88%
22,COc1ccc(N2C(=O)CSC23C(=O)N(Cc2ccc(C)cc2)c2ccccc23)cc1Cl (stereo unspecified),inactive: 8.22%
23,COc1ccc(C)cc1NC(=O)c1nnn(-c2c(C)cccc2C)c1C,inactive: -21.7%
24,CC(=O)Nc1nnc2n1CCS2,inactive: -5.32%

row,SMILES,"activity change, negative = cytotoxicity"
1,Cc1ccc(CN2CCC(CNC(=O)Nc3ccc(C)c(C)c3)C2)cc1 (stereo unspecified),inactive: -24%
2,CC(C)N(C(=O)Cn1cc(SCC(=O)Nc2ccccc2C(F)(F)F)c2ccccc21)C(C)C,inactive: -0.836%
3,CCOc1ccc(C2C(C(=O)Nc3ccccc3C)=C(C)Nc3nnnn32)cc1 (stereo unspecified),inactive: -3.71%
4,COc1ccc(C)cc1NC(=O)c1oc2ccc(S(=O)(=O)N3CCC4(CC3)OCCO4)cc2c1C,inactive: 0.669%
5,Cc1ccc(C)c(NC(=O)/C(C#N)=C/c2ccc(C(C)C)cc2)c1,inactive: 0.0767%
6,Cc1nn(C(=O)c2c(F)cccc2F)c(C)c1S(=O)(=O)N1CCCCCC1,inactive: 7.35%
7,CCCc1nnc(NC(=O)Nc2ccccc2Cl)s1,inactive: -0.993%
8,CCOc1ccc(OCC)c(NC(=O)C2CCCN(S(=O)(=O)c3cc(Br)cc4c3N(C(=O)CC)CC4)C2)c1 (stereo unspecified),inactive: -0.726%
9,Cc1nc2nc(C)c(NS(=O)(=O)c3ccc(CC(C)C)cc3)c(=O)n2[nH]1,inactive: -0.423%
10,COc1ccc(NC(=O)Cn2cc(C(=O)c3ccccc3OC)c(=O)c3ccc(C)nc32)cc1OC,inactive: -2.55%
11,Cn1c(=O)c2c(-c3ccccc3)n(CCCO)cc2n(C)c1=O,inactive: 1.5%
12,CCn1c(CN2CCOCC2)nc2cc(NC(=O)c3cccc([N+](=O)[O-])c3)ccc21,inactive: 0.0389%
13,O=C1CC(c2c(F)cccc2Cl)c2c(ccc3ccccc23)N1 (stereo unspecified),inactive: 2.29%
14,COc1cc(C2c3c(oc4ccc(F)cc4c3=O)C(=O)N2Cc2ccc3c(c2)OCO3)ccc1O (stereo unspecified),inactive: 3.57%
15,CCCCN(CC)C(=O)c1c[nH]c2ccc(S(=O)(=O)N(C)c3ccc(Cl)cc3)cc2c1=O,inactive: -1.06%
16,COC(=O)c1cccnc1-n1c(=O)c2cccnc2n(CC(=O)Nc2cccc(C)c2)c1=O,inactive: 14.9%
17,COc1ccc(NC(=O)Cc2c(C(=O)O)[nH]c3ccccc23)cc1OC,inactive: 5.25%
18,COc1ccc(CNC(=O)Cc2coc3ccc(C)cc23)cc1,inactive: -5.85%
19,Cc1ccc(NC(=O)c2oc3ccc(S(=O)(=O)N4CCOCC4)cc3c2C)c(C)c1,inactive: 0.83%
20,CCN(c1ccccc1C)S(=O)(=O)c1nnc(NC(=O)c2ccccc2C)s1,inactive: -27.3%
21,CC(C)Oc1ccc(CNC(=O)c2ccc3c(c2)nc2n3CCOC2)cc1,inactive: 4.18%
22,CCOc1ccc(C(=O)/C=C/c2cn(CC(O)CN3CCc4ccccc43)c3ccccc23)cc1 (stereo unspecified),inactive: -1.25%
23,Cc1cc(C)cc(N2C(=O)N(Cc3cc(=O)n4ccccc4n3)c3ccccc3S2(=O)=O)c1,inactive: -2.44%
24,COc1cc(OC)c(OC)cc1CN1CCc2nc(N3CCN(C)CC3)ncc2C1,inactive: 4.65%
